From the supplement of paper PMC4967469
Lines with a small IC50 respond at low doses; fits outside the tested doses are given as limits. AUC sums up the same curve from the lowest dose to the 256-fold higher top dose; it is 1 without any effect and falls as sensitivity rises. For part of these data: The top dose, if marked as inferred, was derived from the fitted curves, not read from the paper. For part of these data: Where an entry number is given, a second screen of the drug exists; the two often differ.

What was measured:
Experiment in all cases: Viability of human cancer cell lines after 72 h of drug (GDSC screen)
[1] = compound: CC1=C(/C=C/C(C)=C/C=C/C(C)=C/C(=O)O)C(C)(C)CCC1 [Tretinoin]; conditions: top dose 10 µM; top dose inferred
Experimental: (§1)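 Human cancer cell lines in 384-well plates, medium with 10% serum, drug for 72 h over a 256-fold dose range (nine 2-fold or five 4-fold steps up to the top dose). Adherent lines were fixed and stained with the nucleic acid dye Syto60, suspension lines read with resazurin; signal relative to control wells, capped at 0 and 100%. One two-parameter sigmoid per drug and line, fitted in a mixed model over all curves with the slope shared within a line.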

[2] = compound: CCn1c(-c2nonc2N)nc2c(C#CC(C)(C)O)ncc(OC[C@H]3CCCNC3)c21 [GSK690693]; conditions: top dose 10.24 µM; top dose inferred
Experimental: as §1

[3] = compound: COc1cc2c(NC3CCN(C(C)C)CC3)nc(C3CCCCC3)nc2cc1OCCCN1CCCC1 [UNC0638]
Experimental: as §1

[4] = compound: COc1ccc(N(C(=O)Oc2c(C)cccc2C)c2ccnc(Nc3ccc(N4CCN(C)CC4)cc3)n2)c(OC)c1 [WH-4-023]; conditions: top dose 5.12 µM; top dose inferred
Experimental: as §1

[5] = compound: Cc1cccc(-c2[nH]c(C(C)(C)C)nc2-c2ccc3c(c2)OCO3)n1 [SB-505124]; conditions: top dose 10 µM; top dose inferred
Experimental: as §1

[6] = compound: O=C(NCCCNc1nc(Nc2cccc(NC(=O)N3CCCC3)c2)ncc1I)c1cccs1 [BX-795]; conditions: top dose 5 µM; top dose inferred
Experimental: as §1

[7] = compound: Oc1cccc(-c2nc(N3CCOCC3)c3oc4ncccc4c3n2)c1 [PI-103]; conditions: top dose 10.24 µM
Experimental: as §1

[8] = top dose 20 µM, screen: GDSC drug entry 1236, top dose inferred
[9] = top dose 40 µM, screen: GDSC drug entry 245

Row | Cell Line | AUC [1] | IC50 [1] [µM] | AUC [2] | IC50 [2] [µM] | AUC [3, 8] | IC50 [3, 8] [µM] | AUC [3, 9] | IC50 [3, 9] [µM] | AUC [4] | IC50 [4] [µM] | AUC [5] | IC50 [5] [µM] | AUC [6] | IC50 [6] [µM] | AUC [7] | IC50 [7] [µM]
1 | EVSA-T (breast, adherent) | 0.942 | > 10 | 0.842 | 5.74 | 0.802 | 8.2 | 0.662 | 6.54 | 0.941 | > 5.12 | 0.882 | 7.98 | 0.86 | 3.26 | 0.37 | 0.296
2 | EW-1 (Ewing sarcoma, semi-adherent) | 0.989 | > 10 | 0.453 | 0.483 | 0.827 | 10.9 | 0.563 | 3.66 | 0.967 | > 5.12 | 0.984 | > 10 | 0.948 | > 5 | 0.475 | 0.551
3 | EW-3 (Ewing sarcoma, adherent) | 0.982 | > 10 | 0.941 | > 10.2 | 0.752 | 7.46 | 0.609 | 5.21 | 0.943 | > 5.12 | 0.962 | > 10 | 0.906 | > 5 | 0.543 | 0.855
4 | EW-11 (Ewing sarcoma, adherent) | 0.859 | > 10 | 0.528 | 0.78 | 0.732 | 7.07 | 0.629 | 6.31 | 0.977 | > 5.12 | 0.916 | > 10 | 0.884 | > 5 | 0.357 | 0.229
5 | EW-13 (Ewing sarcoma, suspension) | 0.976 | > 10 | 0.852 | 9.3 | 0.925 | > 20 | 0.678 | 8.32 | 0.984 | > 5.12 | 0.972 | > 10 | 0.933 | > 5 | 0.362 | 0.255
6 | EW-16 (Ewing sarcoma, adherent) | 0.954 | > 10 | 0.929 | > 10.2 | 0.763 | 7.51 | 0.607 | 4.98 | 0.868 | 5.01 | 0.873 | > 10 | 0.799 | 2.52 | 0.413 | 0.366
7 | EW-18 (Ewing sarcoma, suspension) | 0.932 | > 10 | 0.469 | 0.524 | 0.801 | 10.5 | 0.559 | 3.66 | 0.986 | > 5.12 | 0.978 | > 10 | 0.799 | 2.6 | 0.237 | 0.104
8 | EW-24 (Ewing sarcoma, semi-adherent) | 0.972 | > 10 | 0.993 | > 10.2 | 0.965 | > 20 | 0.791 | 15.6 | 0.989 | > 5.12 | 0.976 | > 10 | 0.977 | > 5 | 0.993 | > 10.2
9 | EoL-1-cell (haematopoietic neoplasm, suspension) | 0.107 | 0.0413 | 0.871 | 7.77 | 0.67 | 3.48 | 0.496 | 2.45 | 0.032 | < 0.02 | 0.973 | > 10 | 0.226 | 0.0562 | 0.789 | 3.96
